# Measurements taken from the supplement of paper PMC3334620.
# The full ranking holds about 33,000 sequences; the median of “E-score (-0.5 to 0.5)” is about -0.017, and the highest 2% start at about 0.3. The list shows a part of the results.
# Target: T1, Sut1 (UniProt P53032)
# T1 sequence: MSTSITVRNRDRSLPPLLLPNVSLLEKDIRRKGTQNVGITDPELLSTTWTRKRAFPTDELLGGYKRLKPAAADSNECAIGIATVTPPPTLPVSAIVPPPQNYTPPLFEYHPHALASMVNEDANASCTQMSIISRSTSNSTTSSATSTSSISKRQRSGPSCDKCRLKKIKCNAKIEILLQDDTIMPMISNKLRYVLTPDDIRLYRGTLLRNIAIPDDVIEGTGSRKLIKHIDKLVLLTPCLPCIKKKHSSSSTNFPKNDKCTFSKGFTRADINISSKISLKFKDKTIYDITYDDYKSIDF
# Experiment: PBM E-score (8-mer binding enrichment) (E-score (-0.5 to 0.5)); higher = stronger / more preferred TF binding; most listed sequences are background and not binding sites
# Details: protein concentration: 200 nM; construct: GST-full length
# Experimental: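 Universal 'all 10-mer' protein binding microarrays (Agilent AMADID 015681) probed with GST-tagged S. cerevisiae TFs (full-length or DBD) made by in vitro transcription/translation (PURExpress), about 100-200 nM. Bound TF was detected with fluorescent anti-GST. Each ungapped 8-mer (which stands for itself and its reverse complement) is scored by the PBM enrichment score (E-score), a modified Wilcoxon-Mann-Whitney statistic from -0.5 to +0.5, computed with the Universal PBM Analysis Suite. Scale: above 0.35 generally sequence-specific binding.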
row,Sequence,PBM E-score
1,GTGGAGGA,-0.0728
2,CTGACTGC,-0.116
3,GGAAATTA,0.286
4,AGCTGGTA,-0.169
5,CTCAGTCA,-0.164
6,GACACGCC,-0.123
7,AACTCACG,-0.17
8,TAGTGAGA,0.137
9,AGTGGTCG,-0.114
10,TAGTTCAA,0.0939
11,CCTATACG,-0.0397
12,GGAGTCCC,0.155
13,ATCTAACA,0.141
14,ATGGAGCG,-0.162
15,AAAAAATG,0.241
16,GTTATAGA,0.126
17,GGGAAGGA,-0.207
18,CGGCGGTA,0.14
19,CCAACGGC,-0.126
20,GCGGCTGA,-0.258
21,TCCGCAAA,0.258
22,CGGATTAG,0.0268
23,AAGATCTA,-0.0686
24,AACGTCCA,-0.064
25,CCCTATAC,-0.133

row,Sequence,PBM E-score
1,CCCGGTGC,-0.224
2,CGGAAGCA,0.228
3,ATCGGACA,0.257
4,ACCCCAAG,-0.159
5,ATTGGCGG,-0.0124
6,GACCTTAC,-0.00752
7,CGTGAATA,0.176
8,AAGTACCC,-0.0435
9,CATATATC,-0.0165
10,CCTGTTAG,-0.0146
11,ACTCGTAA,0.114
12,ATCTGGCG,-0.0659
13,CCAACAGC,-0.0867
14,GAGGCGGA,0.0432
15,CCAGACAG,-0.0646
16,TGGTGACA,-0.118
17,ATCGCGAT,0.13
18,AGGTGTAA,0.11
19,CGCTGGTC,-0.329
20,ATCTCTGG,-0.195
21,GATCCTAC,-0.0447
22,CAAAGTGC,0.0175
23,ACTCCCCT,-0.103
24,CGCCACAA,-0.0776
25,TCGCCACA,-0.2

row,Sequence,PBM E-score
1,CGTGATTC,-0.103
2,ACGGGGGC,-0.294
3,CCTTTGAA,-0.0516
4,CATAGTAA,0.136
5,CTGTGGCA,-0.228
6,TAGATCCA,-0.00709
7,GGGGCCGA,-0.343
8,ACTATCAC,0.114
9,AAGGTACT,0.0546
10,ATGGCCTC,-0.123
11,AACCGAGC,0.146
12,AGTGCAAG,0.0115
13,AGCGAGTC,-0.0124
14,CACAATTC,0.139
15,GAGCGCCC,-0.246
16,TACATAAA,0.211
17,ACAACGCC,0.0884
18,TCAATAGA,0.137
19,CGGCCGAG,-0.0772
20,CCCCAAGC,-0.0954
21,GAGAATGC,0.0169
22,CCTAGGGA,-0.0185
23,GTGCGATA,-0.00475
24,GAGTGTGC,0.141
25,ATGACTGC,0.00267

row,Sequence,PBM E-score
1,TCCTCCAA,-0.023
2,CTGAACTC,-0.0264
3,GCGTGAAA,0.0003
4,ACTCCAAT,0.0796
5,ATGACTTG,-0.00572
6,ACTATGTA,-0.0435
7,AATACCCG,-0.14
8,ATCTTCGA,0.00133
9,CTGGCAAA,0.0918
10,GCCCACGA,-0.199
11,GAGTAAAA,0.141
12,ACTAAATG,0.0164
13,GCGTGCAA,-0.225
14,CAGGAAGC,-0.0659
15,AGATGTCC,0.196
16,AAGCTGGG,-0.21
17,AGTGCCAC,-0.182
18,AAAACCGG,0.185
19,CTCCATAA,0.07
20,CTAAGACC,-0.0285
21,AAGTGCCG,-0.00956
22,TGGGACCA,-0.111
23,AGAGCCAA,0.00258
24,AAAAAACC,0.0814
25,GCTGGACA,-0.168

row,Sequence,PBM E-score
1,CCGCGAGG,0.0858
2,CTCTTCGA,0.0214
3,AGCGGACG,-0.118
4,AGTCTCCC,-0.0841
5,AGCTATAT,0.145
6,CGCTGAAA,0.0486
7,CCCTTCCC,-0.291
8,GGGCGAGA,-0.219
9,TCAATTCA,0.172
10,GCCTCCTA,-0.172
11,GAGGCGGC,-0.101
12,ACTGGTGC,-0.174
13,GTAGGGAC,-0.271
14,TAGCCTAA,-0.0657
15,CATATGAG,-0.0348
16,GTACGGTA,-0.0214
17,GGCAGGAA,-0.127
18,ATCCGAAA,0.272
19,ACCAAGAC,-0.072
20,TCAGTTAA,0.171
21,ACTGCATG,-0.121
22,CACACATC,-0.168
23,TTCAAAAA,0.242
24,TAAGCTTA,0.0477
25,CCATCTGA,-0.141

row,Sequence,PBM E-score
1,CAAGCAAA,0.0589
2,TGGAGACA,-0.113
3,GTCGGACA,0.271
4,AGGATATA,0.208
5,GCTTTAGA,-0.00855
6,CCAGTGTA,-0.0483
7,AATAGCCT,-0.0867
8,ACAGCATG,-0.124
9,GGCGACCA,-0.292
10,GTAGAACA,-0.233
11,GGCTGTTA,0.0481
12,GCTTTCTA,0.113
13,AACTAATT,0.186
14,CGTCGTTA,0.0641
15,CACACAAG,0.0136
16,CGGGACAC,-0.265
17,CAATGTTA,0.101
18,AAAACTGG,0.149
19,ACCTCGCC,-0.248
20,CGAAGCAC,-0.00994
21,TATACATA,0.225
22,ACAGCACT,0.0434
23,ATGGTGAC,-0.122
24,AGGGACTA,-0.165
25,AATTCCCG,-0.0339

row,Sequence,PBM E-score
1,AATGATGG,0.0762
2,CAGAACTC,0.0167
3,GATAACAC,0.0535
4,CAAGAATG,0.0903
5,ACATACAC,0.105
6,AGGTATCC,0.0539
7,GCTGACGA,-0.117
8,CCCGGAGA,0.374
9,CGTGAAAA,0.194
10,GTGCTGCA,-0.0495
11,GGAGGAAA,-0.00077
12,GCGTGCGA,-0.084
13,ATCAGGGC,-0.189
14,CGATAGGC,-0.138
15,CTTCATCA,0.0503
16,CACAAGGA,-0.0575
17,GTTCGAGA,-0.134
18,ATAAAGCC,-0.0535
19,AATTGCGG,0.119
20,ACTGGGGG,-0.312
21,GCGACGCC,-0.15
22,CGGGTGAC,-0.164
